# Results published in PMC7819943, “Rice protein-binding microarrays: a tool to detect cis-acting elements near promoter regions in rice”.
# Some of the results follow.
# Target: T1, OsWOX13 (Oryza sativa, UniProt Q5QMM3 1-267)
# T1 sequence: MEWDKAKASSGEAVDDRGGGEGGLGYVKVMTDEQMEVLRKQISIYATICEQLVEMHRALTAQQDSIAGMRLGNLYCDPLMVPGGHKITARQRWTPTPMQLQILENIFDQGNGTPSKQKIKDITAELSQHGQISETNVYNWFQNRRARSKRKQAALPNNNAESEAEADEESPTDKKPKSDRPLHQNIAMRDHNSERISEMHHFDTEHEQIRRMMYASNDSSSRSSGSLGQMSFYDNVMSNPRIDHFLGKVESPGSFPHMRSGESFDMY
# Test: protein-binding microarray (RPBM); PBS, 2% BSA, 51.3 ng/ul salmon testes DNA, 50 uM zinc acetate, 200 nM TF, 25 C, 1 h; high values mean tight binding
# Details: protein: recombinant; tags: N-terminal polyhistidine and DsRed monomer fusion (pET32a); label: CyDye5-dUTP incorporated in the synthesized complementary strand; 3' TTTTT single-stranded linker to array surface; dsDNA, one strand shown
# Procedure, shortened: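 Binding signal is reported as fluorescence intensity per feature (arbitrary units) from an Axon 4000B scanner. Incubation used 200 nM of each Ni–NTA-purified, N-terminally polyhistidine- and DsRed-fused transcription factor from E. coli BL21-CodonPlus on a double-stranded custom Agilent array for 1 h at 25 °C, with 50 µM zinc acetate in the buffer, followed by washing.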
row,Sequence,binding signal
1,GGTTAATTTTAGCAGTAATCTGAACATGCCCGAAGTCAACCGGAGTCACCTAGTGCAG,8970 fluorescence intensity (a.u.)
2,CTCCAACTACTGATTAGCACTCTCTCCACTCGCTTGCAAACGGAGTCACCTAGTGCAG,14500 fluorescence intensity (a.u.)
3,TTTGATTTGCATTCTTCGACCGCAAAACTTGGTACAAGACCGGAGTCACCTAGTGCAG,29000 fluorescence intensity (a.u.)
4,TCAAATTCGTACATAGAAATTAATTTATTTTGGATGGAGGCGGAGTCACCTAGTGCAG,8240 fluorescence intensity (a.u.)
5,CATTTATAGCCAATTTAATAGCCAACTCATACAATAGTTGCGGAGTCACCTAGTGCAG,4060 fluorescence intensity (a.u.)
6,ACATTCCAAATAAATCAATCTACGTGATACTTCCTGATACCGGAGTCACCTAGTGCAG,4190 fluorescence intensity (a.u.)
7,CCTAATTGGAAAGGTTCAATGTTCTCTCTGAGTGGTAGGCCGGAGTCACCTAGTGCAG,42000 fluorescence intensity (a.u.)
8,GTTGATTTTAGGACCTTTTATCATAGTTTATTTTCCAATCCGGAGTCACCTAGTGCAG,9410 fluorescence intensity (a.u.)
9,AATCCTCTTAATTATTATTAGCGGTTCGTCCTATGATCTTCGGAGTCACCTAGTGCAG,7080 fluorescence intensity (a.u.)
10,GGATTAATAGAATAATCGTACCAACAAGTTGCAACTTCTTCGGAGTCACCTAGTGCAG,4540 fluorescence intensity (a.u.)
11,CTCTCTCCTTGGCCTCTTCCTCCCTGGTCGGTAGCGCAGCCGGAGTCACCTAGTGCAG,59600 fluorescence intensity (a.u.)
12,TTCCTTTGATTGATCATGAGGTGGGCTGGGGCTGAGATGGCGGAGTCACCTAGTGCAG,59400 fluorescence intensity (a.u.)
13,CAGCCGGATTGATTGCGTAGCTGTGTGCAAGGCTGGGCGACGGAGTCACCTAGTGCAG,35900 fluorescence intensity (a.u.)
14,TTGATACTTAATTAATCATGTTGTTTTGTGTGCCCGGGGACGGAGTCACCTAGTGCAG,16600 fluorescence intensity (a.u.)
15,TTGCTGATTGTGAATGGTGGGTGCAAGGATACACTTTTCGCGGAGTCACCTAGTGCAG,23900 fluorescence intensity (a.u.)
16,GTCTCAATCTAGTCATTCGTCCTGCTGGTGAGTTGATGTACGGAGTCACCTAGTGCAG,4610 fluorescence intensity (a.u.)
17,ATAATCTAGATTATAATAATCCTATGCTGAACCAAACAGGCGGAGTCACCTAGTGCAG,10900 fluorescence intensity (a.u.)
18,ATAAAATCACAAGAGTAAATTTGGGGCATAAGATTTTATTCGGAGTCACCTAGTGCAG,4400 fluorescence intensity (a.u.)
19,ACTGATGACTATGCTAGTGCCTACTAGTAACCAGTATACTCGGAGTCACCTAGTGCAG,3790 fluorescence intensity (a.u.)
20,TTATTAGATGATGATTATTTTGAGAAGGTTTCTTAGGATGCGGAGTCACCTAGTGCAG,12900 fluorescence intensity (a.u.)
21,CGTAAACATCTGATGAGTACCTCACATGTTGAACATCTCCCGGAGTCACCTAGTGCAG,3900 fluorescence intensity (a.u.)

row,Sequence,binding signal
1,GACCTTTGGGTAGGGGTGGGGATGGGGCGAAATTACTAAACGGAGTCACCTAGTGCAG,6190 fluorescence intensity (a.u.)
2,TTCTACTAATCAGTCAAATAGGGCTCAATATGGATTAGTTCGGAGTCACCTAGTGCAG,4540 fluorescence intensity (a.u.)
3,ATTACATTGATAGCCTTTATGCAGTAAATTTGGCCAGCCTCGGAGTCACCTAGTGCAG,10100 fluorescence intensity (a.u.)
4,AACAGTTCTGCTGAACCTCTTTTGCCTGCCCAAATCAAAACGGAGTCACCTAGTGCAG,7650 fluorescence intensity (a.u.)
5,GTTGATCAAAGTTTTAAATTTTAACCAAATGTTGTCATAACGGAGTCACCTAGTGCAG,7850 fluorescence intensity (a.u.)
6,GGTAGATTAGATTAAGAGTAAACTGACTATATCTTAAACTCGGAGTCACCTAGTGCAG,28800 fluorescence intensity (a.u.)
7,AAAGATTGATAATGCCAAATGTTGCCAATATAAAAGATGCCGGAGTCACCTAGTGCAG,44000 fluorescence intensity (a.u.)
8,ACACCTAAATTAGATAGATCTGTTATCGAGAGTGTGGACTCGGAGTCACCTAGTGCAG,17500 fluorescence intensity (a.u.)
9,AAATAAAAGGAGTATTAATTAGATAGTGACACCGTGTGACCGGAGTCACCTAGTGCAG,4970 fluorescence intensity (a.u.)
10,TAAAATTAGTCAAACTTAAAGCAGTTTGATTTTGACTAAACGGAGTCACCTAGTGCAG,3740 fluorescence intensity (a.u.)
11,TTTTGTGCAATCAGAACCTGTCAGATGAAGCTGTTGTTGGCGGAGTCACCTAGTGCAG,4120 fluorescence intensity (a.u.)
12,CAAATTTTGTCAATTTGGCAATATTGCCAAGTTTTGACATCGGAGTCACCTAGTGCAG,20800 fluorescence intensity (a.u.)
13,TCAACATGATTATATAGCTATATGTTATCTAATTAATGCTCGGAGTCACCTAGTGCAG,18900 fluorescence intensity (a.u.)
14,CATTATTGAGTGGTACCAAGATTTCAGATTTCTTGCTCCCCGGAGTCACCTAGTGCAG,4490 fluorescence intensity (a.u.)
15,TTGATTTGTTTTCTTAGCCATCTAAAGCATTGAATGGAGTCGGAGTCACCTAGTGCAG,14000 fluorescence intensity (a.u.)
16,TTTATTGACACTTCAGCTTATGTATTGACCTGTTATTTAGCGGAGTCACCTAGTGCAG,3540 fluorescence intensity (a.u.)
17,TTTTCTAATCAATCTAGTTTCTTTAGCACTAAAACAATTGCGGAGTCACCTAGTGCAG,17100 fluorescence intensity (a.u.)
18,CGGGATAATGATTATACACGGAATTACCACCGAAAGGGCCCGGAGTCACCTAGTGCAG,24200 fluorescence intensity (a.u.)
19,ACTAATTGCACATATTACGACTAATTTACCAGATGAATCTCGGAGTCACCTAGTGCAG,34700 fluorescence intensity (a.u.)
20,ATTTAAATTGCATGACTTTAAATATTAAAACAGTAATGATCGGAGTCACCTAGTGCAG,18600 fluorescence intensity (a.u.)
21,TCATAAACTTTTGTTTATTTACCATGCACCAGTTCTGCATCGGAGTCACCTAGTGCAG,4020 fluorescence intensity (a.u.)
